Here are results for 41 compounds from ChEMBL document CHEMBL4888484, “Replenishing the malaria drug discovery pipeline: Screening and hit evaluation of the MMV Hit Generation Library 1 (HGL1) against asexual blood stage Plasmodium falciparum ,using a nano luciferase reporter read-out” (2022).

Out of some 150,000 compounds screened, about 540 (0.36%) showed an effect of 50% or more. Some of the results follow.

For the assay, the system named is Plasmodium falciparum. In words: Primary screen in NF54 nanoGlo assay, in single point, at 2uM, 72h; a lower Z score goes with more inhibition. Format: functional, Erythrocyte. To be noted: timepoint 72 hour.
For the compound `COCC[C@H]1CN(C(=O)c2cccn3cc(C)nc23)CCO1`, the “% Inhibition” value is reported as -9% and the Z score amounted to 1.7.

Regarding `O=S(=O)(Nc1ccc(-c2cc3ccccc3[nH]2)cc1)c1ccc2c(c1)CCCC2`, the “% Inhibition” value was -21% and the Z score came out at 1.87.

As for `COc1ncccc1[C@@H]1C[C@H](NC(=O)c2ccccc2)C[C@H](C(C)C)O1`, the “% Inhibition” value is recorded as -6% and the Z score is reported as 1.

Take `CC(C)(C)[C@@H]1CCN(C(=O)c2cnc3ccccc3n2)CCO1`: the “% Inhibition” value is listed as -25% and the Z score is on record as 3.24.

Consider `CCc1cccc(C)c1N1C[C@@H](C(=O)N(CC)C2CCOCC2)CC1=O`, for which the “% Inhibition” value was -6% and the Z score is recorded as 1.1.

Turning to `CN1CCN(C(=O)CC[C@H]2CCCN(Cc3ccc4ccccc4c3)C2)CC1`, the “% Inhibition” value was -7% and the Z score was 1.17.

As to `COCCOc1ccc(NCc2cncs2)cc1F`, the “% Inhibition” value was -7% and the Z score was 0.93.

As for `CCN(Cc1ccccc1O[C@@H](C)C(=O)O)CC(F)(F)F`, the “% Inhibition” value was -6% and the Z score amounted to 0.61.

Regarding `Cc1cccc2c1OCC(NC(=O)N1C[C@@H](C#N)[C@H](c3ccccc3)C1)C2` (some centres not stated), the “% Inhibition” value is -19% and the Z score stood at 1.62.

For the compound `CCNC(=O)C(=O)NCc1ccc(Cl)cc1`, the “% Inhibition” value amounted to 38% and the Z score is -4.87.

For the compound `Cc1cnc(C(=O)NC[C@H]2CCCN(C/C=C/c3ccccc3)C2)cn1`, the “% Inhibition” value is recorded as -13% and the Z score is 2.64.

In the case of `Cc1nc(CCNC(=O)Cc2ccsc2)no1`, the “% Inhibition” value is -8% and the Z score is 1.02.

As for `COCCc1ccc(OCc2ccccc2-c2cnc(N)cn2)cc1`, the “% Inhibition” value is on record as -11% and the Z score amounted to 2.03.

Consider `Cc1ccccc1C(=O)NCCC(=O)N1CCCCCCC1`, for which the “% Inhibition” value was -2% and the Z score stood at 0.32.

As to `Cc1ccc(NC(=O)OC(C)(C)C)c2c1N(C(=O)[C@H]1CCCO1)CCC2`, the “% Inhibition” value is listed as -15% and the Z score is reported as 1.5.

`O=C1NCCCCC1NC(=O)N1CCCC1c1cccs1` (configuration not stated): the “% Inhibition” value is given as -15% and the Z score is recorded as 1.74.

In the case of `CC(C)[C@H](CNS(=O)(=O)c1ccc2c(c1)CC(C)(C)O2)C(=O)O`, the “% Inhibition” value is reported as -10% and the Z score is given as 1.78.

Turning to `CCOc1ccc(N2C(=O)c3[nH]nc(-c4ccco4)c3[C@H]2c2cccnc2)cc1`, the “% Inhibition” value was 6% and the Z score is given as -0.73.

With `CC(C)(C)OC(=O)N1CCc2nc[nH]c2C1(C)C`, the “% Inhibition” value was -12% and the Z score is listed as 1.68.

Turning to `CCc1[nH]nc(NS(C)(=O)=O)c1C`, the “% Inhibition” value is listed as -8% and the Z score is 1.49.

For the compound `CCCCC(=O)Nc1ncc2c(n1)C(=O)CC(C)(C)C2`, the “% Inhibition” value is 4% and the Z score is on record as -0.74.

Turning to `NC(=O)c1ccccc1NC(=O)C1CCN(c2cc(C3CC3)ncn2)CC1`, the “% Inhibition” value is reported as 57% and the Z score is -10.93.

Turning to `COc1cc(CNCCN(C)C)cc(Br)c1OCC#N`, the “% Inhibition” value is reported as -23% and the Z score is on record as 2.07.

Consider `CCc1ncc(CN(C)C(=O)C2CC3CCCCC3N2)s1` (configuration not stated), for which the “% Inhibition” value is 2% and the Z score is listed as -0.3.

For `Cc1csc(C[C@H]2CCN(C(=O)c3cc4cccnc4[nH]3)C2)n1`, the “% Inhibition” value is 14% and the Z score is given as -1.82.

As to `O=C(Nc1cccc(Oc2cccnn2)c1)c1ccc2ncsc2c1`, the “% Inhibition” value amounted to 35% and the Z score is given as -2.92.

For the compound `CCCc1nccn1CCn1nc2ccccn2c1=O`, the “% Inhibition” value stood at 14% and the Z score is -1.59.

As to `CC1CCCC(OCc2nnc(-c3ccncc3)o2)C1` (configuration not stated), the “% Inhibition” value is listed as -8% and the Z score turned out to be 1.04.

Regarding `Nc1nc(C2CC2)ncc1C(=O)N1CCCc2n[nH]cc21`, the “% Inhibition” value is listed as 1% and the Z score was -0.21.

On to `Cc1ccc2c(c1C)NC(=O)C21NC(Cc2ccccc2)[C@H]2C(=O)N(C3CCCCCC3)C(=O)[C@H]21` (some centres not stated), for which the “% Inhibition” value is -14% and the Z score came out at 2.18.

Turning to `O=c1c2c(nc3n1CCCN3)CCCC2`, the “% Inhibition” value was -5% and the Z score stood at 1.04.

With `CCOc1ccc(-n2c(N3CCOCC3)nc3cc(C(=O)NCc4ccccc4)ccc3c2=O)cc1`, the “% Inhibition” value is on record as -7% and the Z score came to 1.38.

Consider `Fc1ccc(-c2csc(-n3nccc3-c3ccc(Cl)cc3Cl)n2)cc1`, for which the “% Inhibition” value is listed as -13% and the Z score worked out at 1.63.

On to `COc1ccc(S(=O)(=O)N2CCN(Cc3noc(CCC(=O)N(C)Cc4ccccc4)n3)CC2)cc1`, for which the “% Inhibition” value is 29% and the Z score is 0.24.

Consider `CN(Cc1ccccc1)C(=O)C1CC=CCC1C(=O)Nc1ncc(-c2ccc3c(c2)OCO3)n1C` (configuration not stated), for which the “% Inhibition” value is 36% and the Z score is -4.7.

In the case of `COc1ccc(OCc2nc3cc4c(cc3cc2C(=O)O)OCO4)cc1`, the “% Inhibition” value was 31% and the Z score is recorded as -0.51.

In the case of `Cc1ccc(-c2cc3c(N4CCCN(C)CC4)nccn3n2)c(C)c1`, the “% Inhibition” value is given as 33% and the Z score is -0.53.

Consider `COc1cc2c(=O)ncn(Cc3cc(F)cc(F)c3)c2cc1F`, for which the “% Inhibition” value was determined as 5% and the Z score was -0.92.

Regarding `COc1ccc(OC)c(NC(=O)C(C)(C)Oc2ccc([C@H]3CC3(Cl)Cl)cc2)c1`, the “% Inhibition” value is recorded as -13% and the Z score is listed as 1.64.

Regarding `CCNC(=O)[C@H]1Cc2ccccc2CN1C(=O)c1cccnc1`, the “% Inhibition” value turned out to be 5% and the Z score is -0.86.

On to `COc1ncccc1CNC(=O)CC1CCCC1`, for which the “% Inhibition” value is on record as -4% and the Z score is given as 0.48.
